# Measurements: the RNAGym collection of RNA variant scans (doi:10.1073/pnas.2313332121)
# This sample is rich in variants without activity.
# B1: TPR 5TU (parent)
# chain: GGAUCUUCUCGAUCUAACAAAAAAGACAAAUCUGCCACAAAGCUUGAGAGCAUCUUCGGAUGCAGAGGCGGCAGCCUUCGGUGGCGCGAUAGCGCCAACGUUCUCAACUAUGACACGCAAAACGCGUGCUCCGUUGAAUGGAGUUUAUCAUG
# Variants of: B1
# Assay: polymerase ribozyme fitness, log enrichment relative to wild type (log ratio); higher = more active; in vitro selection for triplet polymerase activity
# Method in brief: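 A heterodimeric triplet polymerase ribozyme had each of its subunits mutagenized by PCR into a library, which was transcribed. One round of in vitro selection, done in triplicate, annealed each library with a biotinylated primer, its partner subunit and triplets, then incubated it frozen at −7 °C before gel excision of extended constructs, streptavidin-bead capture and RT-PCR. Fitness is the logarithm of genotype enrichment relative to wild-type enrichment, based on Illumina sequencing of inputs and outputs and inverse-variance-weighted replicate averages. A base-2 logarithm is used, and genotypes were kept only with ≥10 input reads and ≥1 read per output.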
row,Variant,polymerase ribozyme fitness (log ratio)
1,C27G G70A G86U C99G,≤ -4.2
2,C27G G71A,≤ -4.2
3,C27G G80A C93U C108A A110C G126A,≤ -4.2
4,C27G G81C C95G G140U U146A,≤ -4.2
5,C27G G141U,-4.04
6,C27G U33C G46C C114U,≤ -4.2
7,C27G U33C G68U,≤ -4.2
8,C27G U33G A52C G88C A119G A121G C123G A142G,≤ -4.2
9,C27G U44G A64C U144G,≤ -4.2
10,C27G U53A C79A C87U A113U A138C,≤ -4.2
11,C27G U53A G67C G83C G88U U90G A119C G143C,≤ -4.2
12,C27G U55A U56A G58U,≤ -4.2
13,C27G U55G A73C G84A G86A C95G,≤ -4.2
14,C27G U55G G59C A60U C95U A98U G140A U144A,≤ -4.2
15,C27G U61A G67A G86U C108A,≤ -4.2
16,C27G U77G G84U U135G,≤ -4.2
17,C27G U102G G133A U151A,≤ -4.2
18,C27U A28C U44G A52C C93A,-4.1
19,C27U A28U U53G C93A,≤ -4.2
20,C27U A28U U55C C87U G94A C125A G126U,≤ -4.2
21,C27U A29C C72U C93U A106U,≤ -4.2

row,Variant,polymerase ribozyme fitness (log ratio)
1,C27U A29U G58C G94A,≤ -4.2
2,C27U A30G A52C,≤ -4.2
3,C27U A37C C51U C57U C95U C125A,-4.06
4,C27U A37C G100C,≤ -4.2
5,C27U A37U C125U,-3.74
6,C27U A39C G50U C123A,≤ -4.2
7,C27U A39U A52G C87U U102G C108A A122G,≤ -4.2
8,C27U A39U G59A C79G C95G,≤ -4.2
9,C27U A40C U55A C114U U139G,-3.95
10,C27U A40G G83A U148G,≤ -4.2
11,C27U A40G U45A A64C G84A A97U G133A,≤ -4.2
12,C27U A41C G59A C79G G83U,≤ -4.2
13,C27U A41C G81U C96A,-2.31
14,C27U A41G A52C U61A G68A G94U U148A,≤ -4.2
15,C27U A47G C93A,-4.19
16,C27U A47U C69U C93G U109G,≤ -4.2
17,C27U A49C G88A U111G,≤ -4.2
18,C27U A49G,-2.49
19,C27U A52C U56C C75U C96U C105U,≤ -4.2
20,C27U A52U A64G C96U G124A,≤ -4.2
21,C27U A52U U82G C114G,≤ -4.2

row,Variant,polymerase ribozyme fitness (log ratio)
1,C27U A60U,-1.43
2,C27U A66G C87A C116A,≤ -4.2
3,C27U A89U C96U A138G U146G,≤ -4.2
4,C27U A91G C95A A110C A137U,≤ -4.2
5,C27U A97U C116U A120C,-3.06
6,C27U C32A A39U C75U A91C A121C G126C,≤ -4.2
7,C27U C32G C35G A138C U139A G141A U146G,≤ -4.2
8,C27U C32G G68U A137G,≤ -4.2
9,C27U C32U A47U C85G A150C,≤ -4.2
10,C27U C35U A49U C51G U53A G86U U151G,≤ -4.2
11,C27U C35U G46A G80A C85A C103G A122G G133C U148C,≤ -4.2
12,C27U C35U U53A U56G C57A C93A A113C A122G U146A C149G,≤ -4.2
13,C27U C36A C108G U139G U145C,-3.87
14,C27U C38A C54U G58A C93A A107C A122G G128A,≤ -4.2
15,C27U C38A U45A G48C A52C C85U,≤ -4.2
16,C27U C38A U82G C114A A142U,≤ -4.2
17,C27U C43A G70A A73G C85U A98C G143C U146C,≤ -4.2
18,C27U C43G,≤ -4.2
19,C27U C43G C76G G88C G126A,≤ -4.2
20,C27U C43G G46U A52G A64G C85U C132U,≤ -4.2
21,C27U C43U A91G G92A A121G,≤ -4.2

row,Variant,polymerase ribozyme fitness (log ratio)
1,C27U C51G,-3.3
2,C27U C51U U53A U101G,-3.98
3,C27U C54U C72U C85U U101G G117A G143A U145G,≤ -4.2
4,C27U C54U G58A A106G,-0.532
5,C27U C72U G88A G94A G152A,-4.19
6,C27U C75U,-1.25
7,C27U C76G G84U,≤ -4.2
8,C27U C76G U127A,≤ -4.2
9,C27U C76U G83A,-1.55
10,C27U C79G G83U A107C C125U U144G,≤ -4.2
11,C27U C79G G86A G94A C131U U146G,≤ -4.2
12,C27U C85U,-2.83
13,C27U C87A C116G A137G,≤ -4.2
14,C27U C87G C118U G141C C149G,≤ -4.2
15,C27U C87U A142U,-3.03
16,C27U C93U,-3.3
17,C27U C93U U104A,-3.11
18,C27U C95U,-2.39
19,C27U C96A G140C U144G A150U,≤ -4.2
20,C27U C118U,-1.44
21,C27U G34A A52G U53A G84U C85G C99U G141A,≤ -4.2
